Results reported in EP0531370B1, “INHIBITION OF VIRAL INFECTION” (priority 1990, dated 1991).

Test system: retroviral vector MPSV sup. neo
Experiment: microbe, parasite or virus in culture
Conditions: Moloney murine sarcoma virus, HL-60, in Mus musculus
Description: 24 hours before infection, confluent 90mm plates of NIH-3T3 cells were trypsinized and re-plated at a density of 1 x 10^5 cells per 90mm plate. At the time of infection, 150 recombinant virus colony forming units (previously titred by infection of NIH-3T3 cells and selection of G418-resistant colonies) and 8µg ml^-1 polybrene (1,5-dimethyl-1,5- diazaundecamethylene polymethobromide), were added to the NIH-3T3 cells. After 72 hours, the cells were trypsinized and 1/10th of all the cells which were originally infected were plated on 90mm plates in the presence of G418 at a final concentration of 1mg ml^-1. The colonies were counted after a further 7 days following fixing and staining with Giemsa-methanol stain. The control number of colonies, when neither inhibitors nor inhibitor analogues were used, was 201 ± 0, n = 2.
The above experiment was repeated, except that the retroviral vector MPSV sup. neo (see Example 4 below) was used to infect HL-60 cells. The effect of the poly(ADP-ribose) polymerase inhibitors 5-methyl nicotinamide and chlorthenoxazine was investigated.
MPSV^28 is a recombinant retroviral vector based on the murine myeloproliferative sarcoma virus and is constructed as shown in Figure 2. This vector carries the neomycin phosphotransferase ("neo") gene. This vector also contains the suppressor mutation supF. A suppressor mutant is a mutant which is able to overcome the effects of another. In tRNA suppressor systems, the primary mutation changes a codon in an mRNA so that the protein product is no longer functional; the secondary, suppressor mutation changes the anticodon of a tRNA, so that it recognizes the mutant codon instead of (or as well as) its original target codon. The amino acid that is now inserted restores protein function. The suppressors are named as nonsense or mis-sense, depending on the nature of the original mutation. SupF is in the former category.

[1] = read-out: % inhibition achieved
[2] = read-out: % of control colonies counted

Compound | inhibition at 25 µM [1] | activity at 25 µM [2] | activity at 100 µM [2] | inhibition at 500 µM [1] | inhibition at 2000 µM [1] | activity at 500 µM [2] | activity at 2000 µM [2]
O=C1NC(CCCl)Oc2ccccc21 (centres unmarked) [Chlorthenoxazine, chlorthenoxazine] | 36% | 64% | 49% | – | – | – | –
Cc1cncc(C(N)=O)c1 [5-methyl nicotinamide] | – | – | 183% | 30% | 35% | 70% | 65%
